Measurements published in publication PMC12136788.
This is one part of the list.

B1: chr2:42509997:42509998:+_ENSG00000143924_ENST00000318522|hu_mus|hu_hu_hu_mus_True|38_78 (ssRNA)
RNA: GGGAGUUCUACAGUCCGACGAUCUCGCUGAGUCCUCUCCUCAUAAUUAAACAGGACUACUACUGAUGCGAUAAAAUAAACUAUCUCCCCUGUGGGAAGAAGGUAAACAUUCGCUCUACAGUCCUUUCCUCGAUAACCGUAUACCAACAGAGGAUUGAGCAUCA
B2: chr12:42180722:42180723:-_ENSMUSG00000036295_ENSMUST00000043884|mus_hu|mus_mus_mus_hu_True|18_38 (ssRNA)
RNA: GGGAGUUCUACAGUCCGACGAUCCUGUAGGAGAAGAAUCUGUGUGUUAGCUGGCAAUCUGGCUGGGAAAGUUAAAAGACCUAAAUCAUUACAAUCCACUGUCGAUGCUUCCAUAUAGAUGGAUCUCGGUGUAAACCAAGGCCUCAACAGAGGAUUGAGCAUCA
B3: chr18:67943652:67943653:+_ENSMUSG00000079614_ENSMUST00000025421|mus_hu|FALSE|FALSE (ssRNA)
RNA: GGGAGUUCUACAGUCCGACGAUCAGUUGUCCUUUUAACCCAGUGGCUCUGUCCUCGCAGUUUAUCAUUUGAUUCUCCUACUAUUUCUUCCCAUACAGCAGCUGUUCGGUCAAAAGAACAGGAAGCCAAAACCUGCCCAAAUUCCAACAGAGGAUUGAGCAUCA
B4: chr17:46973061:46973062:+_ENSG00000159199_ENST00000355938|hu_hu|FALSE|FALSE (ssRNA)
RNA: GGGAGUUCUACAGUCCGACGAUCGAGGAUGAGGAAGGCGACCAUCAAACAGAAAAGCCCCAUGGCCUCAGACAGGGCAAAGCCAAGAAUGGCAUAGGAGAAGAGCUGCUGCUUGAGAGACGGGUUCCUGGCAUAGCCAAUGAUCAACAGAGGAUUGAGCAUCA
B5: chr14:89338683:89338684:+_ENSG00000165533_ENST00000346301|hu_hu|hu_hu_hu_mus_False|58_98 (ssRNA)
RNA: GGGAGUUCUACAGUCCGACGAUCGUGGUUGUUGUGGACCAGAGCCAGCCUGAAGCAUUGGUGGGCCAAGUUUGUAUCUCCUAUUCCCACAGCUAUGUGCCCCAGGUUGUACCAGACAUCAGCUGCCUCUUCUUCAUUUUCAGCCAACAGAGGAUUGAGCAUCA
B6: chr6:113465898:113465899:-_ENSMUSG00000030286_ENSMUST00000032425|mus_hu|FALSE|FALSE (ssRNA)
RNA: GGGAGUUCUACAGUCCGACGAUCAUCCUCCUUUUUAUUUCAAGAGGUGCCAGCUCCAAACAAAGUUACAAGGUUAAGUGCAACUCCAAGUUCCUGACACAGCUAAUCCCUGCUCGGUCUUCAAAAAAUAGAGGUCUGUAAUUCCAACAGAGGAUUGAGCAUCA
B7: chr7:44244176:44244177:+_ENSG00000106636_ENST00000223369|hu_mus|hu_hu_hu_mus_False|78_78 (ssRNA)
RNA: GGGAGUUCUACAGUCCGACGAUCACUGUCGCUCCGGACGUAGACAUGGCAAAGAUAGUCUUGUUCUUUGACAGAAGCUCUGCUGCCUUUCCCCGAGCGUUCCACAAUCAGUUGACUUGUAAAGGUCAUGAAUUCCUGCACACUCAACAGAGGAUUGAGCAUCA
B8: chr1:226549179:226549180:-_ENSG00000143799_ENST00000366794|hu_hu|FALSE|FALSE (ssRNA)
RNA: GGGAGUUCUACAGUCCGACGAUCCAGAGCCACCGGGUGUGACUCGGCUACCUCUCCCAAUUACCACAGGGAGGUCUUAAAAUUGAAUUUCAGUUUCAGCAGAUACUUCAGAUUUACCUGAGCAAUAUCAUAGACAAUGUACUCCAACAGAGGAUUGAGCAUCA
B9: chr2:216983849:216983850:+_ENSG00000079246_ENST00000392132|hu_hu|motif|central (ssRNA)
RNA: GGGAGUUCUACAGUCCGACGAUCCUUGCCAAGUGAGAAAGGCAAGAAGAAUUGCAGGGAGAUGUCACAUUUCUUCAAGCGGUGAAUUAUAAUAUCCAGCUGACUUUUGCUGAAUCGGCUGCUGAGGUCAGUGAAUAUUUCAAUCAACAGAGGAUUGAGCAUCA
B10: chr2:153237265:153237266:-_ENSMUSG00000061411_ENSMUST00000109784|mus_mus|mus_mus_mus_hu_False|18_108 (ssRNA)
RNA: GGGAGUUCUACAGUCCGACGAUCAAAAAAAAGAAAAAAAAAGUGUCCUUGUGCCCAAAGUCUCAGGUGCUUGGAGUGUGGCUAGAAACAGCUCUUUUGGAUCCCACCUCUUUCAAAAAACAGUGUAACCAACUGGUGAGGCAGCAACAGAGGAUUGAGCAUCA
B11: chr17:45747064:45747065:+_ENSG00000108424_ENST00000290158|hu_hu|hu_hu_hu_mus_True|18_58 (ssRNA)
RNA: GGGAGUUCUACAGUCCGACGAUCGCCCACAGUCCACGCUGUUGUGUCUCGAACAACUACACUGGGGUCUUUCAUUAAUUCUAUUAGGGUGGGCAUAGCCUGUAUGACUAAUGGUUUGAGCUGACUGGGCUCUGGUCCUUCCAACAACAGAGGAUUGAGCAUCA
B12: chr4:25749455:25749456:-_ENSG00000091490_ENST00000264868|hu_hu|hu_hu_hu_mus_False|18_108 (ssRNA)
RNA: GGGAGUUCUACAGUCCGACGAUCGCAAGCACUAGGAUAGAAAAAUCCACAGGGGGAAAAAAUGUAAACCAAUGUACAAUGUUAUCGCCUUCCCUGUGUGUGGAGUGUUUGUCUCAAUAUUUCAAGGAGCUGCUGGAUUUGGGACAACAGAGGAUUGAGCAUCA
B13: 133644272_133644621_340_3pUTR_ENSMUSG00000032637_ENSMUST00000167759|mouse|control|control (ssRNA)
RNA: GGGAGUUCUACAGUCCGACGAUCGGACAAGCAGAACGUCGCUUGGUUUAAACACCAUGGUGUCCACAAUGUCUUCCCGGCGAGGCCCACCUGCUGGCUCAGAUGCUUUCCGAUGCACCGCGUCAACUGCCAGUUCAAACUUUGCAACAGAGGAUUGAGCAUCA
B14: 138266576_138268338_2400_CDS_ENSG00000044115_ENST00000302763|human|control|control (ssRNA)
RNA: GGGAGUUCUACAGUCCGACGAUCCAGCUGGUGGCAGUAGAGGGCGAUGCGUUGCAGGUAGGCCAGCAGGUCCUGCUUGCAAGCCGAGUCGGGGCAAUGGUCUGCAAUGGUGCGGCCAAGCUUGUCCAUCCUGGAUCCUGCCUCCAACAGAGGAUUGAGCAUCA
B15: chr2:78710632:78710633:+_ENSMUSG00000027011_ENSMUST00000028398|mus_hu|FALSE|FALSE (ssRNA)
RNA: GGGAGUUCUACAGUCCGACGAUCUCAGGCUCUGGAGCGGCUGGGUCUCGCUGGUCCGCAUCUGAACUGCCACUGCUGGUGCUGGGGCUCUCAUCAUCGGACCUUUGCCUAUCACUGGACAUCUUGGUGAAGUUAUCUCUUGGACAACAGAGGAUUGAGCAUCA
B16: chr4:48472932:48472933:-_ENSMUSG00000028345_ENSMUST00000030030|mus_hu|FALSE|FALSE (ssRNA)
RNA: GGGAGUUCUACAGUCCGACGAUCAGUUGACGCAUUUGCCAGGGAGACCAUGAUAUCAGACAGUGUUAAAUUCAGUAAGAGAUGAUCUAUGUUAUUGGAGAGAACUGUGCAAUGCUUGAUGCUUUUAUUUGGCUCUUUCCUUUUCAACAGAGGAUUGAGCAUCA
B17: chr10:82349929:82349930:+_ENSMUSG00000020250_ENSMUST00000020484|mus_mus|motif|central (ssRNA)
RNA: GGGAGUUCUACAGUCCGACGAUCAUAACAUUUGUUGUUAUCCCGGGAUGGGACUGUCCAUUCCAAUGGCCAAAAGAAACGGUGGUAAACUUCAAUAUUUUCUUCCCCAAAUUUCUCUACGGCUUUUUCUUCAGAGAGGCCACACAACAGAGGAUUGAGCAUCA
B18: chr10:33190432:33190433:-_ENSG00000150093_ENST00000302278|hu_mus|hu_hu_hu_mus_True|48_58 (ssRNA)
RNA: GGGAGUUCUACAGUCCGACGAUCUACAUUUUCCAAACCUGCAUGUGAAUAAAACCCUGGCCACAGAGCCCCAAAACUACCUAACUGUGACUAUGGAGCUGCUGCUGUGAGCUUGGUGUUGCAAAAUCCGCCUGAGUAGGAUUCCAACAGAGGAUUGAGCAUCA
B19: chr1:173273950:173273951:-_ENSMUSG00000013997_ENSMUST00000111295|mus_hu|FALSE|FALSE (ssRNA)
RNA: GGGAGUUCUACAGUCCGACGAUCAGGCCCCUGCCCUGGAAUCUCUACGUCACACAGAUGUGUCUUCCUGUAAGUGGCCACUACUGCCCCUUUGCUGUUCAGCAGCACGUGACAAUUGUAGAUUUUCUGAGUCUGCUCCCAGUCCAACAGAGGAUUGAGCAUCA
B20: 13607888_13609275_1788_3pUTR_ENSMUSG00000031918_ENSMUST00000134674|mouse|control|control (ssRNA)
RNA: GGGAGUUCUACAGUCCGACGAUCAGUGACACUGUCUUCUUAGGAAGAUUCUCUUUCCCCCUCUGCUGUUCGCUGUUACAAAGGAAUGUUCCAAAUAAACAGCUGUACAAGUGGUCCAGGAUGGUAAUGAGAAAAUACUCAUUGCAACAGAGGAUUGAGCAUCA
B21: chr12:96259795:96259796:+_ENSG00000139343_ENST00000266735|hu_hu|FALSE|FALSE (ssRNA)
RNA: GGGAGUUCUACAGUCCGACGAUCAAGGACAUUAUUACACCUUAUUAAAACUUCACCCAGAUGUCCAGACAAAGCUCCAUCUAUGUAUUCUUCUGUAUUUGCAAGCUGCAUGUUCAUGUAGCCAUCUACAGAUACCAGAUAGCCCAACAGAGGAUUGAGCAUCA
B22: chr7:148783431:148783432:+_ENSMUSG00000002957_ENSMUST00000003038|mus_hu|FALSE|FALSE (ssRNA)
RNA: GGGAGUUCUACAGUCCGACGAUCACUCAGCAGGUUCACAGCCUCCAUGUGUCCAAAGUCAAUGUCAUGACCAAGGAGAAAGAUGAAGAGCAACUUGCAGACGUACUUUUUUUUACUAUAGCCAUCAAGAGCCUUGUCACCUUUCAACAGAGGAUUGAGCAUCA

target: T1, UNK ZnF1-3 (human, UniProt Q9C0B0 31-174); test: nsRBNS (natural sequence RNA bind-n-seq); RBNS binding buffer (assumed for nsRBNS): 25 mM Tris pH 7.5, 150 mM KCl, 3 mM MgCl2, 0.01% Triton X-100, 500 ug/ml BSA, 20 U/ml SUPERase-In, 4 C; UNK is unkempt and MSI1 is Musashi-1; names of the RNAs are library labels; protein concentration not given here; high values mean tight binding
T1 sequence: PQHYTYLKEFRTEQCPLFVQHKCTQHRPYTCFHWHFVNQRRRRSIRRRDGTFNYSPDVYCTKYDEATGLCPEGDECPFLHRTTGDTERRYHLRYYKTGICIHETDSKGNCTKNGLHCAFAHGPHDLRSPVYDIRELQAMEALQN

First: B1
Second: B2
The binding signal of the first is lower: 0.616 enrichment R for the first, 0.967 enrichment R for the second.

Going from B3 to B4, the binding signal rises from 1.28 enrichment R to 1.5 enrichment R.

Going from B5 to B6, the binding signal rises from 0.682 enrichment R to 1.42 enrichment R.

Compared with B7, B8 is lower in binding signal: 0.819 enrichment R for the first, 0.801 enrichment R for the second.

Compared with B9, B10 is higher in binding signal: 0.627 enrichment R for the first, 2.14 enrichment R for the second.

First: B11
Second: B12
The binding signal of the first is lower: 0.717 enrichment R for the first, 1.55 enrichment R for the second.

Compared with B13, B14 is lower in binding signal: 1.03 enrichment R for the first, 0.544 enrichment R for the second.

Going from B15 to B16, the binding signal rises from 0.726 enrichment R to 0.905 enrichment R.

Going from B17 to B18, the binding signal rises from 0.676 enrichment R to 0.957 enrichment R.

First: B19
Second: B20
The binding signal of the first is lower: 0.647 enrichment R for the first, 0.69 enrichment R for the second.

Going from B21 to B22, the binding signal rises from 0.574 enrichment R to 0.996 enrichment R.
